# Assay results published in PMC4336329 (PLoS ONE, 2015).
# The campaign covered roughly 310,000 compounds. About 14,000 (4.5%) showed an effect of 50% or more. The effect is printed as a negative number. Some of the results follow.
# Target: human ether-à-go-go-related gene (hERG) potassium channel (human, UniProt Q12809)
# Assay: primary screen, population patch clamp on CHO cells stably expressing hERG
# 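Also: peak tail current of the secondary pulse compared with the same well before compound.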
# Sequence of human ether-à-go-go-related gene (hERG) potassium channel (Q12809 whole entry, looked up): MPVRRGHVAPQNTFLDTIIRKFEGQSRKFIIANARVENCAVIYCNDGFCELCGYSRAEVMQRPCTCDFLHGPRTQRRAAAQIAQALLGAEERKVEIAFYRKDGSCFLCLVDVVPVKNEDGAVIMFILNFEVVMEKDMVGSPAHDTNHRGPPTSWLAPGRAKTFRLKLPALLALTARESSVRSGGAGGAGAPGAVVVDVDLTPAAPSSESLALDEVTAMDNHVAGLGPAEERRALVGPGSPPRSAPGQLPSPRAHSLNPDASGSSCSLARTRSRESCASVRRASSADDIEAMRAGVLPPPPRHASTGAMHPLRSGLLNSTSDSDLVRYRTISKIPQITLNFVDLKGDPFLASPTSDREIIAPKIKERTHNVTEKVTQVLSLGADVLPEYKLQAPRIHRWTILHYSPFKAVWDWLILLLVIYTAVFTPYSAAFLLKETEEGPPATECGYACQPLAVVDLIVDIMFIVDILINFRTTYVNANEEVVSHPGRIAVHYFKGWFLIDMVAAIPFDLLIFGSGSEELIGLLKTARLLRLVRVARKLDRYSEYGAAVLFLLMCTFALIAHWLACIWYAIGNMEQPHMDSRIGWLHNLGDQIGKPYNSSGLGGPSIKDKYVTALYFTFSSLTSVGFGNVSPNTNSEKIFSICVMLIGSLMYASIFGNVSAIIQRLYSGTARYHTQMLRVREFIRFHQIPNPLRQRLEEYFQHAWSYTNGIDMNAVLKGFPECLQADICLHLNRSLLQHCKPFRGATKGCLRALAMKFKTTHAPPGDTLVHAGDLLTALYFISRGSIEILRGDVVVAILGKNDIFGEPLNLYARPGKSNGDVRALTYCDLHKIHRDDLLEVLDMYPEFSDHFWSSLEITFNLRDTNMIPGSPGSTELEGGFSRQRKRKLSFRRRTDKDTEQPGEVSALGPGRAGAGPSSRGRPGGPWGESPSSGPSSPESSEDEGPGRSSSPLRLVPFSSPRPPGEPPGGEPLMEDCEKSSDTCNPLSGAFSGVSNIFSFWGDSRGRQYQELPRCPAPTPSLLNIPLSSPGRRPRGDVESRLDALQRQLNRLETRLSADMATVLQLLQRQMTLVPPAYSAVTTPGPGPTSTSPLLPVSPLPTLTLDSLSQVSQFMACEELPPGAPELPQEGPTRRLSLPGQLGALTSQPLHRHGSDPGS
row,Compound,"hERG current change (%, negative = inhibition) at 10uM [%]"
1,CCOc1ccccc1OCCC(=O)NNC(=O)Cn1nc(C)cc1C,0.717
2,COC(=O)Cc1csc(/N=C/c2c(O)n(-c3cccc(C(F)(F)F)c3)c(=O)c3ccccc23)n1,18.6
3,COC(=O)c1cccc(S(=O)(=O)N2CCC(NC(=O)NC34CC5CC(CC(C5)C3)C4)CC2)c1,4.44
4,CCNC(=O)/C=C/c1ccccc1[N+](=O)[O-],8.82
5,c1cncc(-c2noc(C34CC5CC(CC(C5)C3)C4)n2)c1,-0.918
6,COc1ccc(C)cc1NC(=O)CO/N=C(\N)CC(=O)NC1CCCCC1,-1.54
7,CSCCC(NC(=O)c1ccc(Cl)cc1Cl)C(=O)NCc1ccccn1 (centres unmarked),-8.59
8,Cl.O=S(=O)(CCc1ccncc1)c1ccc(Cl)cc1,-6.1
9,O=C(COc1ccc(Br)cc1)NCC1COc2ccccc2O1 (centres unmarked),-20.9
10,CCN(CC)c1ccc(C(=O)NNC(=O)CNC(=O)c2cccs2)cc1,1.25
11,Cc1ccc(NC(=O)CN2CCc3cc4c(cc3C2)OCCCO4)cc1,15.4
12,COC(=O)c1sccc1NC(=O)c1cnc2cc(C)nn2c1C,22.4
13,CCOCCCNC(=O)C1c2cc(OC)c(OC)cc2C(=O)N2CCCCC12 (centres unmarked),-4.73
14,CCc1nnc(NC(=O)C2=CCN(S(=O)(=O)c3ccc(F)cc3)CC2)s1,3.92
15,O=c1[nH]c(/C(Cl)=C/c2cccc(C(F)(F)F)c2)nc2cc(Cl)ccc12,-8.65
16,CC1(C)Cc2c(cnn2-c2ccccc2)C(=O)/C1=N\NC(=O)c1ccncc1,5.31
17,COc1ccc(NC(=S)N2CCC(c3nc4ccccc4o3)CC2)c(OC)c1,-19.2
18,Nc1nc(-c2ccc3c(c2)CCCC3)c(CC(=O)O)s1,15.7
19,COc1cc(OC)cc(C(=O)Nc2cccc(-c3ccc(N4CCOCC4)nn3)c2)c1,14.5
20,COc1ccc(N2CCN(C(=O)CCc3ccccc3)CC2)cc1,-9.27
21,O=C(NCC1CCCO1)c1cccc(NS(=O)(=O)c2ccccc2)c1 (centres unmarked),19.8
22,CCCCOC1CC(c2ccc(OCc3ccc(OC)cc3)c(OC)c2)N(C)O1 (centres unmarked),3.47

row,Compound,"hERG current change (%, negative = inhibition) at 10uM [%]"
1,CN(C)c1ccc(/C=C2\C(=O)NC(=O)N(Cc3ccc(F)cc3)C2=O)cc1,-7.4
2,CCOC(=O)N1CCC(NC(=O)c2ccc3c(c2)N=C(CC)c2ccccc2S3)CC1,9.68
3,COc1cccc(N2C(=O)CC(NNC(=O)c3cccs3)C2=O)c1 (centres unmarked),-35.1
4,CCCc1nnc(NC(=O)c2c(O)c3c([nH]c2=O)CCCC3)s1,-2.7
5,Cc1ccc(NC(=O)Nc2cc(-c3ccccc3)nn2C)cc1Cl,18.2
6,COc1cc(/C=N/n2c(C3CCCCC3)n[nH]c2=S)ccc1O,16.9
7,CNC(=O)Nc1cc(C)nn1C,23.7
8,CCn1cc(C(=O)O)c(=O)c2cc(F)c(N3CCN(C(=S)NC(=O)c4cc(OC)cc(OC)c4)CC3)cc21,9.16
9,Cc1ccc(S(=O)(=O)N2CCCC2CNC(=O)C(=O)Nc2ccc(F)cc2)cc1 (centres unmarked),-43.1
10,c1ccc2c3nnc4n(c-3nc2c1)CCCS4,-24
11,COc1ccc(C(=O)CSc2nnc(CNC(=O)c3ccc(OC)c(OC)c3)n2C)cc1,-6.88
12,COc1cc(OC)c2c(-c3ccccc3)cc(=O)oc2c1C(CC(=O)N1CCOCC1)c1ccc(N(C)C)cc1 (centres unmarked),1.42
13,CC(=O)N(CN1C(=O)c2ccccc2C1=O)c1ccccc1,9.8
14,CC(=O)Nc1cccc(NC(=O)Nc2cccc(Cl)c2C)c1,29.5
15,CCCOc1ccc(-c2nnn(CC(=O)Nc3cccc(C(=O)OC)c3)n2)cc1,1.61
16,O=C(N/N=C/c1ccccn1)c1ccc(Cl)cc1,-23.1
17,Cc1nc2sccn2c(=O)c1CCN1CCC(=C(c2ccc(F)cc2)c2ccc(F)cc2)CC1,-78.6
18,Cc1ccc2nc(-c3sc4nc(C)ccc4c3N)[nH]c2c1,9.66
19,O=C(O)c1ccccc1C(=O)NCC(O)COc1ccc(Cl)cc1 (centres unmarked),2.34
20,Cc1nnc2ccc(N3CCCCC3)nn12,6.15
21,COc1ccc(-n2nnnc2SCC(=O)N2CCCC2)cc1OC,12
22,O=C(Cn1c(=O)oc2ccccc21)Nc1nc(-c2ccccc2)cs1,15.2
